The values below come from ChEMBL document CHEMBL4888484, “Replenishing the malaria drug discovery pipeline: Screening and hit evaluation of the MMV Hit Generation Library 1 (HGL1) against asexual blood stage Plasmodium falciparum ,using a nano luciferase reporter read-out” (2022).

The structures appear in SMILES notation. About 540 (0.36%) of roughly 150,000 compounds showed an effect of 50% or more. The list shows a part of the results.

This test has as its system Plasmodium falciparum. The test can be described thus: Primary screen in NF54 nanoGlo assay, in single point, at 2uM, 72h; a lower Z score goes with more inhibition. It is filed as functional, Erythrocyte. The conditions noted are these: timepoint 72 hour.
For `CCN(Cc1cnc2c(-c3ccccc3)cnn2c1)Cc1ccccc1F`, the “% Inhibition” value is -8% and the Z score is 0.8.
Take `O=C(c1cccn2c(=O)c3cc(Cl)ccc3nc12)N1CCN(Cc2ccc3c(c2)OCO3)CC1`: the “% Inhibition” value was -5% and the Z score amounted to 0.61.
Taken in the same sequence, the figures for `Cc1n[nH]c(-c2ccc(Br)cn2)n1` were 1% and -0.21.
As to `O=C1CCCN1CCCN(C(=O)c1cc(C2CC2)[nH]n1)C1CCOCC1`, the “% Inhibition” value was -1% and the Z score turned out to be 0.21.
Taken in the same sequence, the figures for `CN(C(=O)CCCS(C)(=O)=O)c1ccc(-c2ccccc2)cc1` were -3% and 0.26.
With `CN1CCC2C(CCCN2C(=O)C(=O)Nc2ccccc2Cl)C1` (centres undefined), the “% Inhibition” value was found to be 9% and the Z score is recorded as -0.99.
Taken in the same sequence, the figures for `O=C1C[C@H](CNCc2ncc(Cl)s2)CN1C1CC1` were -12% and 1.88.
On to `O=C(Nc1cc(F)c(OC(F)F)cc1F)N1CCCOCC1`, for which the “% Inhibition” value is -3% and the Z score was 0.32.
Taken in the same sequence, the figures for `O=C(CCCN1C(=O)[C@H]2Cc3ccccc3CN2C1=O)NC[C@H]1CCCN2CCCC[C@@H]12` were -5% and 0.65.
For the compound `Cc1ccc(C)c(-c2cn3c(C(=O)N(C)Cc4nc(C)no4)csc3n2)c1`, the “% Inhibition” value was 2% and the Z score is given as -0.28.
Turning to `CC1(C2CCCN(CCOc3cccc(C#N)c3)C2)NC(=O)NC1=O` (centres undefined), the “% Inhibition” value was found to be 25% and the Z score is recorded as -2.84.
As for `COc1ccc(CC(=O)N2CCC3(CC2)C[C@@H](CNS(C)(=O)=O)CCO3)cc1`, the “% Inhibition” value was 3% and the Z score is recorded as -0.53.
Taken in the same sequence, the figures for `CN1C[C@@H](C(=O)N2CCC(c3nccn3CC3CC3)CC2)Oc2ccccc21` were -1% and 0.14.
As for `C[C@H]1CN(C(=O)N2CCC(C(=O)NCCC3=CCCCC3)CC2)c2ccccc2O1`, the “% Inhibition” value was 6% and the Z score is -1.13.
Taken in the same sequence, the figures for `CC(=O)Cn1cc(C(F)(F)F)ccc1=O` were -1% and 0.11.
For the compound `CCC(CC)C(=O)N1CCN(c2ncccc2NC(=O)c2ccc3c(c2)OCO3)CC1`, the “% Inhibition” value is listed as -13% and the Z score was 1.9.
Taken in the same sequence, the figures for `Cc1cc(C)n(-c2ccc(C(=O)N3CCCC3)cc2)n1` were -10% and 1.24.
In the case of `CCCN(CC(=O)N1CCn2cccc2[C@H]1c1ccc(C(C)(C)C)cc1)C(=O)CCc1ccccc1`, the “% Inhibition” value was determined as 10% and the Z score is listed as -1.11.
Taken in the same sequence, the figures for `COc1ccc(NC(C)=O)cc1NC(=O)c1cc2c(OC)ccc(OC)c2n1C` were 10% and -1.21.
As for `O=C(O)[C@@H]1CCN(Cc2ccon2)c2ccc(Br)cc21`, the “% Inhibition” value is given as 0% and the Z score is recorded as 0.06.
On to `Cc1ccsc1[C@H]1CCN(Cc2cc(CC(C)C)[nH]n2)C[C@@H]1O`, for which the “% Inhibition” value is -2% and the Z score is 0.32.
As to `Cc1ccc(CN(C(=O)c2cnc(C)cn2)[C@H]2CCc3ccccc32)cc1`, the “% Inhibition” value is -8% and the Z score stood at 0.98.
For the compound `Cc1ccc(Cl)cc1N(CCCC(=O)N1CCOCC1)S(C)(=O)=O`, the “% Inhibition” value is -7% and the Z score is 0.81.
For the compound `COc1ccc(S(=O)(=O)c2c(N)n(Cc3ccccc3Cl)c3nc4ccccc4nc23)cc1`, the “% Inhibition” value is -8% and the Z score is 0.71.
Taken in the same sequence, the figures for `CCOc1ccc(CNC(=O)c2cnc(N3CCCCCC3)nc2N)cc1` were -7% and 0.86.
`COc1ccc(C(=O)N2CCCN(C[C@H]3CN(C(=O)c4ccc(Cl)c(Cl)c4)CCO3)CC2)cc1OC`: the “% Inhibition” value was -3% and the Z score is 0.32.
For `Cc1cc(C(F)(F)F)ccc1OCC(=O)NCC1CCC1`, the “% Inhibition” value is -2% and the Z score is listed as 0.18.
Taken in the same sequence, the figures for `Cc1ccn(CCNC(=O)CCc2nc3ncc(Br)cc3[nH]2)n1` were -13% and 1.96.
As for `CC(C)(C)OC(=O)N1CCC(c2c(C(=O)NCCCN3CCCCC3)cnn2-c2ccc(F)cc2F)CC1`, the “% Inhibition” value was -14% and the Z score turned out to be 2.47.
`CN(Cc1ccccc1)C(=O)c1nccnc1NC(=O)c1ccccc1`: the “% Inhibition” value is on record as -12% and the Z score is on record as 1.79.
Turning to `O=C(N1CCOCC1)N1CC[C@@H]2CN(c3ncccn3)C[C@@H]21`, the “% Inhibition” value is -4% and the Z score is 0.7.
With `O=C(c1n[nH]c2c1CCC2)N1CCC[C@H](c2nc3ccccc3s2)C1`, the “% Inhibition” value is given as -25% and the Z score amounted to 4.34.
For the compound `CN(Cc1cscn1)C1CCC(NC(=O)OC(C)(C)C)CC1` (centres undefined), the “% Inhibition” value is given as -16% and the Z score was determined as 1.33.
On to `Cc1nc(O)cc(N2CCC[C@H](c3ccn[nH]3)C2)n1`, for which the “% Inhibition” value is reported as -4% and the Z score worked out at 0.76.
Turning to `C[C@](O)(CNc1nccnc1C#N)c1ccc(F)cc1F`, the “% Inhibition” value is -12% and the Z score came out at 1.9.
As to `C#Cc1ccc(CN[C@@H](CC(C)C)C(=O)NC)cc1`, the “% Inhibition” value is listed as -1% and the Z score was 0.12.
Taken in the same sequence, the figures for `Cc1nn(C(C)C)c(C)c1NS(=O)(=O)c1ccc2c(c1)CC(=O)N2` were -5% and 0.72.
Turning to `O=C1Nc2ccccc2C[C@@H]1NS(=O)(=O)C1CN(C(=O)C2CCCC2)C1`, the “% Inhibition” value was -10% and the Z score is given as 0.92.
Taken in the same sequence, the figures for `Cc1nc[nH]c1CN1C[C@H]2CC[C@@H](C1)N(C(=O)c1ccc3[nH]cnc3c1)C2` were 1% and -0.19.
Taken in the same sequence, the figures for `CCCCN(C)CCC(=O)Nc1ccc(Br)cc1` were -1% and 0.08.
Regarding `COc1cccc(CC(=O)OCc2snnc2C)c1`, the “% Inhibition” value is on record as -14% and the Z score is 1.81.
`CCc1nn(C)c(Cl)c1CN1[C@@H]2CC[C@H]1CN(C)CC2`: the “% Inhibition” value is -4% and the Z score is listed as 0.89.
